Some of the results follow. The list includes weakly bound sequences.
target: T1, MBP-FoxP3dN (UniProt Q99JB6); test: PD-seq (MBP pull-down with sequencing); details: 20 mM Tris-HCl pH 7.5, 100 mM NaCl, 1.5 mM MgCl2, 0.4 uM protein, 0.1 uM dsDNA library, 30 min, room temperature, amylose pull-down; high values mean tight binding; double strand, one strand shown
T1 sequence: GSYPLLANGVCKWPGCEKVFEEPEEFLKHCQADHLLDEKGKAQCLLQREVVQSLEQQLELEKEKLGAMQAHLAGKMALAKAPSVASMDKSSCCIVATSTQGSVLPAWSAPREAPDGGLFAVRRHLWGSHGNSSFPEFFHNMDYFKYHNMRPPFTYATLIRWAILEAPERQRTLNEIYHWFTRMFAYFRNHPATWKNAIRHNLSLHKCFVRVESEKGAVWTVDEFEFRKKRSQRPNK

Row | Sequence | binding signal (RPM ratio (pull-down/input))
1 | GATGATTGTTCTCCCAGCTGATGAATTAAACGTATCGAGTAAACAAATTTTCCTAATCTTTCTGTTCAAGCGCCATCTAC | 0.564
2 | GATGATTGTTCTCCCAGCTGATGAATTATTAACCTCGAGTAAACAAATTTTCCTAATCTTTCTGTTCAAGCGCCATCTAC | 0.365
3 | GATGATTGTTCTCCCAGCTGATGAATTGCAAACCTCGAGTAAACAAATTTTCCTAATCTTTCTGTTCAAGCGCCATCTAC | 0.69
4 | GATGATTGTTCTCCCAGCTGATGAATTACGTCAGTCGAGTAAACAAATTTTCCTAATCTTTCTGTTCAAGCGCCATCTAC | 0.506
5 | GATGATTGTTCTCCCAGCTGATGAATTAGGATGCTCGAGTAAACAAATTTTCCTAATCTTTCTGTTCAAGCGCCATCTAC | 1.14
6 | GATGATTGTTCTCCCAGCTGATGAATTCCTAGGGTCGAGTAAACAAATTTTCCTAATCTTTCTGTTCAAGCGCCATCTAC | 0.185
7 | GATGATTGTTCTCCCAGCTGATGAATTATCTGCTTCGAGTAAACAAATTTTCCTAATCTTTCTGTTCAAGCGCCATCTAC | 0.299
8 | GATGATTGTTCTCCCAGCTGATGAATTCAGGCCGTCGAGTAAACAAATTTTCCTAATCTTTCTGTTCAAGCGCCATCTAC | 0.452
9 | GATGATTGTTCTCCCAGCTGATGAATTCTAGCGGTCGAGTAAACAAATTTTCCTAATCTTTCTGTTCAAGCGCCATCTAC | 0.331
10 | GATGATTGTTCTCCCAGCTGATGAATTGCTACAATCGAGTAAACAAATTTTCCTAATCTTTCTGTTCAAGCGCCATCTAC | 0.922
11 | GATGATTGTTCTCCCAGCTGATGAATTCGTCACGTCGAGTAAACAAATTTTCCTAATCTTTCTGTTCAAGCGCCATCTAC | 1.77
12 | GATGATTGTTCTCCCAGCTGATGAATTCACTCTCTCGAGTAAACAAATTTTCCTAATCTTTCTGTTCAAGCGCCATCTAC | 0.325
13 | GATGATTGTTCTCCCAGCTGATGAATTCGACGAATCGAGTAAACAAATTTTCCTAATCTTTCTGTTCAAGCGCCATCTAC | 0.208
14 | GATGATTGTTCTCCCAGCTGATGAATTGCAGTGGTCGAGTAAACAAATTTTCCTAATCTTTCTGTTCAAGCGCCATCTAC | 0.85
15 | GATGATTGTTCTCCCAGCTGATGAATTTTGCTTTTCGAGTAAACAAATTTTCCTAATCTTTCTGTTCAAGCGCCATCTAC | 4.96
16 | GATGATTGTTCTCCCAGCTGATGAATTCTGTCGCTCGAGTAAACAAATTTTCCTAATCTTTCTGTTCAAGCGCCATCTAC | 0.926
17 | GATGATTGTTCTCCCAGCTGATGAATTTGTTTTCTCGAGTAAACAAATTTTCCTAATCTTTCTGTTCAAGCGCCATCTAC | 7.21
18 | GATGATTGTTCTCCCAGCTGATGAATTATGTAGTTCGAGTAAACAAATTTTCCTAATCTTTCTGTTCAAGCGCCATCTAC | 3.34
19 | GATGATTGTTCTCCCAGCTGATGAATTTTTCTCGTCGAGTAAACAAATTTTCCTAATCTTTCTGTTCAAGCGCCATCTAC | 0.232
20 | GATGATTGTTCTCCCAGCTGATGAATTCTCCTAGTCGAGTAAACAAATTTTCCTAATCTTTCTGTTCAAGCGCCATCTAC | 0.164
21 | GATGATTGTTCTCCCAGCTGATGAATTTCCTCATTCGAGTAAACAAATTTTCCTAATCTTTCTGTTCAAGCGCCATCTAC | 0.295

Row | Sequence | binding signal (RPM ratio (pull-down/input))
22 | GATGATTGTTCTCCCAGCTGATGAATTGTCCTGCTCGAGTAAACAAATTTTCCTAATCTTTCTGTTCAAGCGCCATCTAC | 0.341
23 | GATGATTGTTCTCCCAGCTGATGAATTTATGTCCTCGAGTAAACAAATTTTCCTAATCTTTCTGTTCAAGCGCCATCTAC | 2.91
24 | GATGATTGTTCTCCCAGCTGATGAATTAATACCTTCGAGTAAACAAATTTTCCTAATCTTTCTGTTCAAGCGCCATCTAC | 0.464
25 | GATGATTGTTCTCCCAGCTGATGAATTGCTTTTCTCGAGTAAACAAATTTTCCTAATCTTTCTGTTCAAGCGCCATCTAC | 1.42
26 | GATGATTGTTCTCCCAGCTGATGAATTCTAAGAATCGAGTAAACAAATTTTCCTAATCTTTCTGTTCAAGCGCCATCTAC | 0.205
27 | GATGATTGTTCTCCCAGCTGATGAATTTTATTGGTCGAGTAAACAAATTTTCCTAATCTTTCTGTTCAAGCGCCATCTAC | 4.94
28 | GATGATTGTTCTCCCAGCTGATGAATTTTGGGTGTCGAGTAAACAAATTTTCCTAATCTTTCTGTTCAAGCGCCATCTAC | 0.805
29 | GATGATTGTTCTCCCAGCTGATGAATTTAAGGACTCGAGTAAACAAATTTTCCTAATCTTTCTGTTCAAGCGCCATCTAC | 0.291
30 | GATGATTGTTCTCCCAGCTGATGAATTCAAGTGTTCGAGTAAACAAATTTTCCTAATCTTTCTGTTCAAGCGCCATCTAC | 0.65
31 | GATGATTGTTCTCCCAGCTGATGAATTTTCCGCTTCGAGTAAACAAATTTTCCTAATCTTTCTGTTCAAGCGCCATCTAC | 0.322
32 | GATGATTGTTCTCCCAGCTGATGAATTTTCGCGTTCGAGTAAACAAATTTTCCTAATCTTTCTGTTCAAGCGCCATCTAC | 1.45
33 | GATGATTGTTCTCCCAGCTGATGAATTCGCGCATTCGAGTAAACAAATTTTCCTAATCTTTCTGTTCAAGCGCCATCTAC | 7.06
34 | GATGATTGTTCTCCCAGCTGATGAATTATGTCTGTCGAGTAAACAAATTTTCCTAATCTTTCTGTTCAAGCGCCATCTAC | 1.14
35 | GATGATTGTTCTCCCAGCTGATGAATTAATATGATCGAGTAAACAAATTTTCCTAATCTTTCTGTTCAAGCGCCATCTAC | 0.516
36 | GATGATTGTTCTCCCAGCTGATGAATTGGATACTTCGAGTAAACAAATTTTCCTAATCTTTCTGTTCAAGCGCCATCTAC | 0.546
37 | GATGATTGTTCTCCCAGCTGATGAATTATCATTGTCGAGTAAACAAATTTTCCTAATCTTTCTGTTCAAGCGCCATCTAC | 0.763
38 | GATGATTGTTCTCCCAGCTGATGAATTTCATACTTCGAGTAAACAAATTTTCCTAATCTTTCTGTTCAAGCGCCATCTAC | 0.392
39 | GATGATTGTTCTCCCAGCTGATGAATTCCTCGGCTCGAGTAAACAAATTTTCCTAATCTTTCTGTTCAAGCGCCATCTAC | 0.2
40 | GATGATTGTTCTCCCAGCTGATGAATTACACTGCTCGAGTAAACAAATTTTCCTAATCTTTCTGTTCAAGCGCCATCTAC | 0.531
41 | GATGATTGTTCTCCCAGCTGATGAATTATAGGAATCGAGTAAACAAATTTTCCTAATCTTTCTGTTCAAGCGCCATCTAC | 0.252
42 | GATGATTGTTCTCCCAGCTGATGAATTGAGTCGCTCGAGTAAACAAATTTTCCTAATCTTTCTGTTCAAGCGCCATCTAC | 0.434

Row | Sequence | binding signal (RPM ratio (pull-down/input))
43 | GATGATTGTTCTCCCAGCTGATGAATTGTGGCCCTCGAGTAAACAAATTTTCCTAATCTTTCTGTTCAAGCGCCATCTAC | 1.26
44 | GATGATTGTTCTCCCAGCTGATGAATTACGTTGTTCGAGTAAACAAATTTTCCTAATCTTTCTGTTCAAGCGCCATCTAC | 2.95
45 | GATGATTGTTCTCCCAGCTGATGAATTCCCGAATTCGAGTAAACAAATTTTCCTAATCTTTCTGTTCAAGCGCCATCTAC | 0.594
46 | GATGATTGTTCTCCCAGCTGATGAATTACATGGTTCGAGTAAACAAATTTTCCTAATCTTTCTGTTCAAGCGCCATCTAC | 0.673
47 | GATGATTGTTCTCCCAGCTGATGAATTAACTCAATCGAGTAAACAAATTTTCCTAATCTTTCTGTTCAAGCGCCATCTAC | 0.243
48 | GATGATTGTTCTCCCAGCTGATGAATTTGAGCCGTCGAGTAAACAAATTTTCCTAATCTTTCTGTTCAAGCGCCATCTAC | 0.386
49 | GATGATTGTTCTCCCAGCTGATGAATTCGTAAGATCGAGTAAACAAATTTTCCTAATCTTTCTGTTCAAGCGCCATCTAC | 0.243
50 | GATGATTGTTCTCCCAGCTGATGAATTAACATCATCGAGTAAACAAATTTTCCTAATCTTTCTGTTCAAGCGCCATCTAC | 0.823
51 | GATGATTGTTCTCCCAGCTGATGAATTTGAAAGCTCGAGTAAACAAATTTTCCTAATCTTTCTGTTCAAGCGCCATCTAC | 0.254
52 | GATGATTGTTCTCCCAGCTGATGAATTCCGGGTATCGAGTAAACAAATTTTCCTAATCTTTCTGTTCAAGCGCCATCTAC | 0.57
53 | GATGATTGTTCTCCCAGCTGATGAATTAAAGCTTTCGAGTAAACAAATTTTCCTAATCTTTCTGTTCAAGCGCCATCTAC | 0.897
54 | GATGATTGTTCTCCCAGCTGATGAATTAGCCTTGTCGAGTAAACAAATTTTCCTAATCTTTCTGTTCAAGCGCCATCTAC | 0.563
55 | GATGATTGTTCTCCCAGCTGATGAATTGAAGTGCTCGAGTAAACAAATTTTCCTAATCTTTCTGTTCAAGCGCCATCTAC | 0.386
56 | GATGATTGTTCTCCCAGCTGATGAATTCCTTATTTCGAGTAAACAAATTTTCCTAATCTTTCTGTTCAAGCGCCATCTAC | 0.335
57 | GATGATTGTTCTCCCAGCTGATGAATTCCGCCGATCGAGTAAACAAATTTTCCTAATCTTTCTGTTCAAGCGCCATCTAC | 0.698
58 | GATGATTGTTCTCCCAGCTGATGAATTTGTTCTGTCGAGTAAACAAATTTTCCTAATCTTTCTGTTCAAGCGCCATCTAC | 2.14
59 | GATGATTGTTCTCCCAGCTGATGAATTACCCATGTCGAGTAAACAAATTTTCCTAATCTTTCTGTTCAAGCGCCATCTAC | 0.294
60 | GATGATTGTTCTCCCAGCTGATGAATTATTAAGGTCGAGTAAACAAATTTTCCTAATCTTTCTGTTCAAGCGCCATCTAC | 0.284
61 | GATGATTGTTCTCCCAGCTGATGAATTGGCCATTTCGAGTAAACAAATTTTCCTAATCTTTCTGTTCAAGCGCCATCTAC | 0.956
62 | GATGATTGTTCTCCCAGCTGATGAATTATTCCTTTCGAGTAAACAAATTTTCCTAATCTTTCTGTTCAAGCGCCATCTAC | 0.308
63 | GATGATTGTTCTCCCAGCTGATGAATTGACGCCATCGAGTAAACAAATTTTCCTAATCTTTCTGTTCAAGCGCCATCTAC | 2.09
